Measurements as given in PubChem BioAssay AID504332 (National Center for Advancing Translational Sciences (NCATS), 2011).
The whole screen tested about 350,000 compounds, of which about 31,000 (8.9%) were called active. Inconclusive results, whose numbers are uncertain, are shown with a selection of clear calls. Calls follow the shape of the dose curve; as a rule, active = well fitted inhibition curve with a large enough effect; inconclusive = small, poorly fitted or top-dose-only effect; inactive = no such curve, though single readings can be large or run the other way. Where the call is inconclusive, the potency comes from a doubtful curve fit.

target: Histone-lysine N-methyltransferase EHMT2 (Homo sapiens) (UniProt Q96KQ7); test: qHTS Assay for Inhibitors of Histone Lysine Methyltransferase G9a; details: G9a H3K9 monomethylation, AlphaScreen, 2 h; activity, negative = inhibition: at 59 µM (top of the series) unless noted; also: nearly all actives have a fitted effect of over 75% in size
Chain of UniProt Q96KQ7 (Q96KQ7 whole entry, looked up): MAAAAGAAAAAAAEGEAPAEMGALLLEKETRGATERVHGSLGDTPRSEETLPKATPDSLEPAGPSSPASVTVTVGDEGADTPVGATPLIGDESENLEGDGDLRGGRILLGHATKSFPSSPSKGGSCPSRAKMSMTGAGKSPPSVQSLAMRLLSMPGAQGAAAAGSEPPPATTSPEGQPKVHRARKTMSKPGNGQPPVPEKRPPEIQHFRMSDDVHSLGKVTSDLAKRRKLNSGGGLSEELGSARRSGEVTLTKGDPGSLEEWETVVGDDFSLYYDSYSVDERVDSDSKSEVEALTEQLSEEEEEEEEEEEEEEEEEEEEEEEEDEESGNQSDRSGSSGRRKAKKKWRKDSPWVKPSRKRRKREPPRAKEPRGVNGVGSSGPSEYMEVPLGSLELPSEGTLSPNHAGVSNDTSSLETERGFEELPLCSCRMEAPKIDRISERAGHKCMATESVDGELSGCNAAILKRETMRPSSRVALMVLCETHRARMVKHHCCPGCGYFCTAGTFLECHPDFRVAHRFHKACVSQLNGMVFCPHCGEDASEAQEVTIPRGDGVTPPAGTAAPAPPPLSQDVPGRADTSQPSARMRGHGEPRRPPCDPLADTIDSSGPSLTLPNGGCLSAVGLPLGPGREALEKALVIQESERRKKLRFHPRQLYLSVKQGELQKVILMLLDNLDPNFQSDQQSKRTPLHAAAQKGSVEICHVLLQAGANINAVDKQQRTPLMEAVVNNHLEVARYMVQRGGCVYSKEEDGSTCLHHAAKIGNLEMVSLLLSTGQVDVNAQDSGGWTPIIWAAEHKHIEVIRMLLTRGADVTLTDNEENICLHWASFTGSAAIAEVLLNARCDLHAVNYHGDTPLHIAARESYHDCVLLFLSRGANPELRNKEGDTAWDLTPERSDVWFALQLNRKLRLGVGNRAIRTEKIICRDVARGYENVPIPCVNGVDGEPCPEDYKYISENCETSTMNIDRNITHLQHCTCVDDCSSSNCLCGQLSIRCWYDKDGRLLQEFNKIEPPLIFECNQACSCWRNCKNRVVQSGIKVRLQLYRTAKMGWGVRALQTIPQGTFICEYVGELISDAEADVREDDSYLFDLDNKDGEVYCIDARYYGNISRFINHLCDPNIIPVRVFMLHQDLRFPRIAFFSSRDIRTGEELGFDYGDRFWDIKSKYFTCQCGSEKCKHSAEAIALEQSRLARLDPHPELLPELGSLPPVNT
Summary of the method: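 Enzyme 20 nM + cpd, 15 min RT; add b-H3K9 pep 500 nM / SAM 20 uM; 2 h RT; anti-H3K9me1 Ab 0.5 ug/mL + SA donor / anti-rabbit acceptor beads 20 ug/mL each, 10 min; AlphaScreen read.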
% is scaled to controls: 0 for no effect and ±100 for the full control effect; potency is read from the fitted curve at half-maximal effect; tags tell the direction and shape of the fitted curve.

| Compound | Potency | activity, negative = inhibition |
| --- | --- | --- |
| Cc1ccc(C=C2C(=O)c3ccccc3C2=O)s1 | inconclusive: 12.6 µM [inhibitor, partial curve, poor fit] | – |
| Cc1ccc(C)c(CNC(=O)c2cc3ccccn3n2)c1 | – | inactive: -1.14% |
| COc1ccc(NC(=S)Nc2cccc(Cl)c2Cl)cc1OC | inconclusive: 89.1 µM [inhibitor, partial curve, poor fit] | – |
| COc1ccc(NC(=O)c2cnc(N3CCCCC3)c3ccccc23)cc1Cl | – | inactive: -1.31% |
| CC(C)C(=O)NC(NC(=S)Nc1cccc2cccnc12)C(Cl)(Cl)Cl (stereo not drawn) | inconclusive: 79.4 µM [inhibitor, partial curve, poor fit] | – |
| COC(=O)N1CCC[C@@]2(CCN(c3ccncc3)C2)C1 | – | inactive: -0.22% [at 12.7 µM] |
| O=C1CC(C(=O)N2CCN(c3ccccc3O)CC2)CN1Cc1ccccc1 (stereo not drawn) | inconclusive: 89.1 µM [inhibitor, single point] | – |
| CC(C)N(Cc1ccccc1)C(=O)COC(=O)c1cnccn1 | inconclusive: 11.2 µM [inhibitor, partial curve, poor fit] | – |
| CN(C)c1ncc2ncc(=O)n(Cc3ccc(F)cc3)c2n1 | – | inactive: -2.75% [at 12.7 µM] |
| O=C1C2=C(Nc3ccccc3SC2c2ccco2)c2ccccc21 (stereo not drawn) | inconclusive: 6.31 µM [inhibitor, single point] | – |
| CSc1nnc(C)c(=O)n1COC(=O)COc1ccc(Cl)cc1 | inconclusive: 89.1 µM [inhibitor, partial curve, poor fit] | – |
| COc1cccc(/C=N/NC(=O)c2cc3cc([N+](=O)[O-])ccc3s2)c1O | inconclusive: 7.94 µM [inhibitor, partial curve, poor fit] | – |
| O=C1C(=C(O)c2ccccc2)C(=O)c2ccccc21 | inconclusive: 35.5 µM [inhibitor, single point] | – |
| CCCCC1CCC(C(=O)N2CC(=O)Nc3ccc(Cl)cc3C2c2ccc(F)cc2)CC1 (stereo not drawn) | – | inactive: -7.24% |
| COc1ccc(-c2[nH]nc3c2C(c2ccccc2OC(=O)N2CCOCC2)C(C#N)=C(N)O3)cc1 (stereo not drawn) | – | inconclusive: -55.8% [inhibitor] |
| Cc1cc2c(=O)n(C)c(SCC(=O)c3cc4ccccc4o3)nc2s1 | – | inconclusive: -51.2% [inhibitor] |
| CC(=O)c1ccc(NC(=O)C2Cc3ccccc3CN2C(=O)c2ccccc2)cc1 (stereo not drawn) | inconclusive: 79.4 µM [inhibitor, single point] | – |
| CCOC(=O)c1cccc2c1N[C@@H](c1ccc(F)cc1)[C@H]1CC=C[C@@H]21 | active: 10 µM | – |
| CCN1CCc2c(sc(NC(=O)c3ccc(S(=O)(=O)N4CCOCC4)cc3)c2C(=O)OC)C1 | inconclusive: 89.1 µM [inhibitor, single point] | – |

| Compound | Potency | activity, negative = inhibition |
| --- | --- | --- |
| O=S(=O)(Nc1nc2ccccc2nc1N1CCN(c2ccccc2)CC1)c1ccc(F)cc1 | active: 50.1 µM | – |
| CCOc1ccc(NC(=O)c2ccc(F)c(S(=O)(=O)N3CCN(c4ccccn4)CC3)c2)cc1 | inconclusive: 79.4 µM [inhibitor, partial curve, poor fit] | – |
| Oc1ccc(/C=N/Nc2nc(N3CCCC3)nc(N3CCCC3)n2)cc1O | active: 10 µM | – |
| Cc1cc(-c2ccc(S(=O)(=O)Nc3ccc(Cl)cc3C)cc2)on1 | inconclusive: 3.55 µM [inhibitor, partial curve, poor fit] | – |
| CCOc1ccccc1NC(=O)c1c(NCc2sccc2C)sc2c1CCC(C)C2 (stereo not drawn) | – | inactive: -29.4% |
| CCCn1c(N)c(C(=O)CSc2nnc(C3CC3)n2Cc2ccccc2)c(=O)[nH]c1=O | inconclusive: 89.1 µM [inhibitor, single point] | – |
| O=[N+]([O-])c1cccc(-c2ccc(/C=N/Nc3nc(N4CCCCC4)nc(N4CCCCC4)n3)o2)c1 | – | inactive: -22.8% [at 102 µM] |
| Cc1cc(N2C(=O)C(O)=C(C(=O)c3ccc(C)o3)C2c2ccc(OCc3ccccc3)cc2)no1 (stereo not drawn) | active: 31.6 µM | – |
| CC(N)C12CC3CC(C1)CC(C(C)N)(C3)C2 (stereo not drawn) | – | inactive: 0.799% [at 12.7 µM] |
| CSCCC(NC(=O)C1CCC(C)CC1)C(=O)NCCN1CCOCC1 (stereo not drawn) | inconclusive: 89.1 µM [inhibitor, single point] | – |
| O=C(O)c1cc(S(=O)(=O)N(Cc2ccccc2)c2ccc(Cl)cc2)ccc1Cl | inconclusive: 56.2 µM [inhibitor, partial curve, poor fit] | – |
| O=C(O)c1c2c(nc3ccc(S(=O)(=O)N4CCC(C(=O)NC5CCCC5)CC4)cc13)CCCCC2 | inconclusive: 0.708 µM [inhibitor, partial curve, poor fit] | – |
| Cc1nc(NCCN2CCOCC2)c2nnn(Cc3ccccc3Cl)c2n1 | inconclusive: 1 µM [inhibitor, full curve, poor fit] | – |
| CCOC(=O)c1ccc2c(c1)nc(COc1ccc(OC)cc1)n2CC | – | inactive: -14.1% [at 102 µM] |
| S=c1nc(-c2ccccc2Br)[nH][nH]1 | active: 0.794 µM | – |
| c1ccc2c(Nc3ccc4c(c3)OCCO4)c3c(nc2c1)CCCC3 | inconclusive: 50.1 µM [inhibitor, single point] | – |
| CCOC(=O)N1CCN(C(=O)CS(=O)(=O)c2cn(Cc3ccccc3C)c3ccccc23)CC1 | inconclusive: 39.8 µM [inhibitor, single point] | – |
| CC1Cc2ccccc2N1C(=O)CSc1ncc(-c2ccc(F)cc2)n1C (stereo not drawn) | inconclusive: 22.4 µM [inhibitor, single point] | – |
| Cc1ccccc1N1CCN(C(=O)C2CCC(=O)N(C3CCCC3)C2)CC1 (stereo not drawn) | – | inactive: 16.9% [at 102 µM] |
